Test results reported in the supplement of paper PMC7266297.
Counter-ions that a name gives are not always drawn. This is one part of the list. Most values come without repeats; read them as rough.

Assays:
[1] = test system: KB-3-1; assay: growth inhibition relative to DMSO control (SRB); cervical cancer cells: KB-3-1 is the parent and KB-V1 overexpresses MDR1; SRB is the sulforhodamine B stain; higher = more growth inhibition; conditions: 1 µM; 72 h
[2] = test system: KB-V1; assay: as above; conditions: 1 µM; 72 h
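Also: Read-out is SRB optical density at 490 nm, with the control being wells given 0.5% DMSO vehicle, and compound added one day after cells were plated.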

| Compound | growth inhibition [1] | growth inhibition [2] |
| --- | --- | --- |
| O=C(Nc1ccccc1)c1cc([N+](=O)[O-])ccc1Cl | < 0% | 11.3% |
| CN(C)CCCCC(=O)Nc1ccc(NC(=S)NC(=O)c2ccc(C(C)(C)C)cc2)cc1 [Tenovin-6] | 32.8% | 19.5% |
| CCOC(=O)c1ccc(NC2CCCCC2)c(N)c1 [Ferrostatin-1 (Fer-1)] | 0.442% | < 0% |
| CC[C@H](c1ccc(O)cc1)[C@@H](CC)c1ccc(O)cc1 [Hexestrol] | 25.1% | 13.3% |
| CCn1c(N)c(C(=O)NC)c(=O)c2ccc(C#CC(C)(O)COC)nc21 (centres undefined) | 15.1% | 11.9% |
| CCCC(CCC)C(=O)O [Valproic acid sodium salt (Sodium valproate)] | 27.3% | 36.1% |
| Cc1ccc(NC(=O)c2cccc(C(C)(C)C#N)c2)cc1Nc1ccc2ncn(C)c(=O)c2c1 | < 0% | 7.81% |
| CN(C)Cc1ccc(S(=O)(=O)n2ccc(/C=C/C(=O)NO)c2)cc1 [Resminostat] | < 0% | 27.7% |
| Cc1nc(C(=O)NCC(=O)O)c(O)c2ccc(Oc3ccccc3)cc12 | 39.9% | 37.6% |
| CCC[C@H](NC(=O)[C@@H]1[C@H]2CCC[C@H]2CN1C(=O)[C@@H](NC(=O)[C@@H](NC(=O)c1cnccn1)C1CCCCC1)C(C)(C)C)C(=O)C(=O)NC1CC1 [Telaprevir (VX-950)] | 31.7% | 10.9% |
| CN1CCN(c2ccc3nc(-c4c(N)c5c(F)cccc5[nH]c4=O)[nH]c3c2)CC1 [Dovitinib (TKI-258) Dilactic Acid] | 11.1% | 63% |
| CN1CCN(c2cccc(Nc3nc4c(-c5ccc(S(C)(=O)=O)cc5)cccn4n3)c2)CC1 | 33.7% | 8.76% |
| CC(C)(F)C[C@H](N[C@@H](c1ccc(-c2ccc(S(C)(=O)=O)cc2)cc1)C(F)(F)F)C(=O)NC1(C#N)CC1 [Odanacatib (MK-0822)] | 53% | 31.5% |
| CCc1cc(Nc2nccc(-c3c(-c4ccc(OC)c(C(=O)Nc5c(F)cccc5F)c4)nc4ccccn34)n2)c(OC)cc1N1CCC(N2CCN(S(C)(=O)=O)CC2)CC1 | 39.3% | 44.7% |
| Cc1ccc(S(=O)(=O)NC(=O)NN2CC3CCCC3C2)cc1 (centres undefined) [Gliclazide] | 23.3% | 1.06% |
| CCN(CC)C(=O)/C(C#N)=C/c1cc(O)c(O)c([N+](=O)[O-])c1 [Entacapone] | < 0% | 9.04% |

| Compound | growth inhibition [1] | growth inhibition [2] |
| --- | --- | --- |
| Cc1cc(Nc2ncnc3ccc(-c4ccc(CNCCS(C)(=O)=O)o4)cc23)ccc1Oc1ccn2ncnc2c1 [HER2-Inhibitor-1] | < 0% | < 0% |
| NC(=O)c1ccc(-c2nc(-c3ccccn3)c(-c3ccc4c(c3)OCO4)[nH]2)cc1 | 13.8% | 21.3% |
| CNC(=O)c1ccc(N2C(=S)N(c3cnc(C#N)c(C(F)(F)F)c3)C(=O)C23CCC3)cc1F | 10.3% | 5.67% |
| COc1ccc2c(Oc3ccc(NC(=O)c4c(C)n(CC(C)(C)O)n(-c5ccccc5)c4=O)nc3)ccnc2c1 | < 0% | 1.56% |
| N[C@H]1C[C@@H]1c1ccc(-c2cccc(O)c2)cc1 | 17.4% | < 0% |
| Cc1ccc(S(=O)(=O)/C=C/C#N)cc1 | < 0% | 12% |
| CCCC(CCC)C(=O)O [Divalproex Sodium] | 48% | 19.4% |
| C[C@H](NC(=O)Cc1cc(F)cc(F)c1)C(=O)N[C@H](C(=O)OC(C)(C)C)c1ccccc1 | < 0% | 70.1% |
| Cc1c(Cn2c(C)nc3c(C(=O)O)cc(N4CCOCC4)cc32)cccc1C(F)(F)F | 47.9% | 11.7% |
| COc1ccc(F)c(F)c1C(=O)c1cnc(NC2CCN(S(C)(=O)=O)CC2)nc1N | < 0% | < 0% |
| CC(C)(C#N)c1cc(Cn2cncn2)cc(C(C)(C)C#N)c1 [Anastrozole] | 31% | 37.2% |
| CC(=O)N[C@@H](CS)C(=O)O [Acetylcysteine] | 21.8% | 13.5% |
| CC(C)(C)OC(=O)N[C@H]1CCCCC/C=C\[C@@H]2C[C@@]2(C(=O)NS(=O)(=O)C2CC2)NC(=O)[C@@H]2C[C@@H](OC(=O)N3Cc4cccc(F)c4C3)CN2C1=O [Danoprevir (ITMN-191)] | 31.3% | 37.3% |
| CCOC(=O)C1=C(C)NC(C)=C(C(=O)OC)C1c1cccc([N+](=O)[O-])c1 (centres undefined) [Nitrendipine] | 28.7% | 5.22% |
| O=C(c1cc(Cc2n[nH]c(=O)c3ccccc23)ccc1F)N1CCN(C(=O)C2CC2)CC1 | 26.5% | 26.4% |
| CC(=O)O/N=C1\C(=O)N(Cc2cc(Cl)ccc2Cl)c2ccc(Cl)cc21 | 5.75% | < 0% |
